The whole screen tested about 48,000 compounds, of which about 1,200 (2.5%) were called active. Inconclusive results (about 2%) are left out.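 Rule for the calls: active = activation of at least 60% and not above a set upper limit (about 1 call in 100 departs from these limits); inconclusive = activation of 40% to 60%, or above that upper limit; inactive = activation under 40%.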 Some of the results follow.

This experiment has as its target Probable G-protein coupled receptor 32 (Homo sapiens) (UniProt O75388). In words: qHTS for Agonists of Human Resolvin D1 Receptor DRV1. Note: 0% is about no effect. To be noted: CHO-K1 GPR32 beta-arrestin PathHunter luminescence, 90 min; at 76.9 µM; stronger effect = higher value; zero percent set by DMSO-only wells. In short, it runs like this: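 Cells are plated overnight, treated with compounds in DMSO for 90 minutes at 37 °C, and developed with PathHunter detection reagent for 1 hour before luminescence is read; signal reflects beta-arrestin binding to GPR32 in engineered CHO-K1 cells.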
UniProt O75388, sequence (O75388 whole entry, looked up): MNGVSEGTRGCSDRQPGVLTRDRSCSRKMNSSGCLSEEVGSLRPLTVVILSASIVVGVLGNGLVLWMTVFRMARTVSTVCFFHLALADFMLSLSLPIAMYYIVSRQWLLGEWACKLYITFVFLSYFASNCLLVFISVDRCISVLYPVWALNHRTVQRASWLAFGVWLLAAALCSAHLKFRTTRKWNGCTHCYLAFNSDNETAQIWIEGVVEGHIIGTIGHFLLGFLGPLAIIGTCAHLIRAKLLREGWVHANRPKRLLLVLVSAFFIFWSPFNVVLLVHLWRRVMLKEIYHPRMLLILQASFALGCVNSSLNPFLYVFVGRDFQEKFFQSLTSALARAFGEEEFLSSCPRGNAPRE
For orientation: In qHTS, concentration-response curves come from the screen itself.
As to `CCc1cccc(C)c1NC(=O)c1cc(S(=O)(=O)N2CCN(c3ccccc3)CC2)ccc1F`, the activation was inactive: 20.3%.

As for `Clc1ccc(CNc2ncnc3onc(-c4ccc(Cl)cc4)c23)cc1`, the activation is inactive: 1.99%. As to `CN1C(=O)c2ccccc2Sc2ccc(NC(=O)N3CCN(c4cccc(Cl)c4)CC3)cc21`, the activation is inactive: 10.7%.

On to `CN(C)c1ccc(C(=O)NCc2ccc3c(c2)CCN3C(=O)c2ccc(Cl)cc2)cc1`, for which the activation was inactive: -21.5%. The figure for `COc1ccc(Cl)cc1NC(=O)CCn1nc(C)cc1C` is inactive: -0.267%; for `COc1ccc(C(=O)NCc2ccc3c(c2)CCN3C(=O)c2ccc(Cl)cc2)c(OC)c1` it is inactive: -21.9%; for `COc1cc(OC)cc(C(=O)Nc2cccc(-c3cn4ccsc4n3)c2)c1` it is inactive: -11.2%.

Take `CCC(Cc1ccccc1)NC(=O)c1cccc(Nc2nc3ccccc3nc2-n2nc(C)cc2C)c1` (stereo not drawn): the activation is inactive: 0.319%. The figure for `CCC1CN(C(=O)N2CCC(C(=O)NCCC3=CCCCC3)CC2)c2ccccc2O1` (stereo not drawn) is inactive: -11%; for `CCOc1ccc(NC(=O)CSc2cn(CC(=O)N3CCOCC3)c3ccccc23)cc1` it is inactive: -11.5%; for `CC(C)OCCCn1c(SCc2ccccc2Cl)nc2c(sc3ccccc32)c1=O` it is inactive: 40.6%.

For `CCC1CCCCN1C(=O)Cn1c(=O)n(-c2ccc(Cl)c(Cl)c2)c(=O)c2c(C)c(C(=O)N(C)C)sc21` (stereo not drawn), the activation was inactive: -23.9%. Then `CCOc1ccc(NC(=O)C2CCC(CNS(=O)(=O)c3ccc4c(c3)CCCC(=O)N4)CC2)cc1` (stereo not drawn), with inactive: -29.6%; and `COc1ccc(CCNC(=O)c2cc(=O)[nH]c3ccc(S(=O)(=O)N4CCCCC4)cc23)cc1OC`, with inactive: -9.04%; and `CC(=O)Nc1c(C)nn(-c2ccccc2)c1N1CCC(C(=O)NCc2cccc(F)c2)CC1`, with inactive: -9.06%. Then `Cc1ccc(N(CC(=O)N2CCN(c3cccc(C)c3C)CC2)S(=O)(=O)c2c(C)nn(C)c2C)cc1`, with inactive: -12.8%; and `CCN(c1cc(C)cc(C)c1)S(=O)(=O)c1nnc(NC(=O)c2ccccc2C)s1`, with inactive: 7.92%. Then `CCCCN(c1ccccc1)c1ncnc2c1cnn2-c1cccc(C)c1`, with inactive: 2.17%; and `CC(=O)Nc1ccc2nc(SCCOc3ccccc3Cl)sc2c1`, with active: 69.4%; and `CCOC(=O)c1c(C)[nH]c(C)c1S(=O)(=O)N(C)CC(=O)Nc1ccc(C)c(F)c1`, with inactive: -18.9%. Consider `CN(C(=O)CSc1nc2ccccc2n1CC(=O)N(C)C1CCCCC1)c1ccc(F)cc1`, for which the activation was inactive: -9.54%. Then `CCc1ccccc1NC(=O)c1ccc2c(c1)c(C)c(C)n2Cc1ccccc1`, with inactive: -8.52%; and `Cc1cc(C)c(NC(=O)C2CCCN(C(=O)c3cnn(-c4ccccc4)c3-n3cccc3)C2)c(C)c1` (stereo not drawn), with inactive: 6.98%; and `COC(=O)c1cc2sccc2n1Cc1nc(-c2ccc(C)cc2)oc1C`, with inactive: -15.1%. For `CCc1ccc(S(=O)(=O)c2cn(Cc3ccc(OC)cc3)c3cc(OC)c(OC)cc3c2=O)cc1`, the activation is inactive: -11.2%.

Regarding `O=C(COc1ccc(Br)cc1)Nc1ccc(C(=O)OC2CCCCC2)cc1`, the activation is inactive: -11%. Then `COc1ccc(NC(=O)CCc2c(C)nc3cc(-c4cccc(F)c4)nn3c2C)cc1Cl`, with inactive: -1.63%.

As for `CCc1nnc2c3ccccc3nc(N3CCN(c4cc(Cl)ccc4C)CC3)n12`, the activation is inactive: 1.94%. Turning to `CCOc1ccc(NC(=O)Cn2c(=O)n(-c3ccccc3)c(=O)c3c4c(sc32)CCCC4)cc1`, the activation was inactive: 5.76%.

In the case of `O=C1CC(c2ccc(Br)cc2)c2c(ccc3ccccc23)N1` (stereo not drawn), the activation is inactive: 20.7%. Take `CCc1nc2nc(C)cc(Nc3ccc(F)c(Cl)c3)n2n1`: the activation is inactive: -17.5%. Take `Cc1ccc(CN2CCC(CNC(=O)Nc3cccc(C)c3C)C2)cc1` (stereo not drawn): the activation was inactive: -27.9%. Then `COC(=O)c1c(Oc2ccc(Br)cc2)nnc(-c2ccccc2)c1-c1ccccc1`, with inactive: -6.14%; and `Cc1c(Cl)cccc1NC(=O)Cn1c(=O)n(Cc2ccco2)c(=O)c2oc3ccccc3c21`, with inactive: -1.75%. Then `CC(=O)N1CCCc2cc(S(=O)(=O)N3CCCC(C(=O)Nc4ccc(C)c(F)c4)C3)ccc21` (stereo not drawn), with inactive: -0.0607%; and `Cc1cccc(C(=O)Nc2ccccc2OCc2cc(=O)n3cc(C)ccc3n2)c1`, with inactive: -0.64%. The figure for `COc1cc(OC)c2c(C)c(CC(=O)N3CCCCC3)c(=O)oc2c1` is inactive: 14.9%; for `CCN(CC)CCCNc1oc(-c2ccc(OC)cc2)nc1C#N` it is inactive: -13.9%; for `COc1ccccc1-c1c(C)nn2c(N3CCN(c4ccc(F)cc4)CC3)cc(C)nc12` it is inactive: -2.12%. With `CC(C)n1c(=O)c2oc3ccccc3c2n(CC(=O)Nc2ccccc2Cl)c1=O`, the activation was inactive: -24.8%. The figure for `CCn1c(C)c(C)c2cc(C(=O)NCCc3cc(OC)ccc3OC)ccc21` is inactive: -11.7%; for `O=C(Nc1cccc(C(F)(F)F)c1)C1CCCN(S(=O)(=O)c2cccc3nonc23)C1` (stereo not drawn) it is inactive: 40.2%; for `Cc1oc2ncn(CC(C)C)c(=O)c2c1C(=O)NCCCN(C)Cc1ccccc1` it is inactive: -14.6%. Then `Cc1cc2oc(C(=O)Nc3ccc(S(=O)(=O)N(C)c4ccccc4)cc3)cc(=O)c2cc1C`, with inactive: 1.4%; and `Cc1oc2c(C)c3oc(=O)c(CCC(=O)N4CCCCC4)c(C)c3cc2c1C`, with inactive: -9.55%. Then `CCOC(=O)c1c(SCC(=O)Nc2cccc(C)c2C)nc(=O)[nH]c1C`, with inactive: -13.2%.

`COc1cc(-c2nnc(SCCOc3ccccc3)o2)cc(OC)c1OC`: the activation was inactive: 4.2%. The figure for `CCOC(=O)Cn1c(=O)oc2cc(S(=O)(=O)Nc3ccccc3F)ccc21` is inactive: -28%; for `COc1ccc(-c2noc(-c3ccc(NCCc4ccccc4)c([N+](=O)[O-])c3)n2)cc1` it is inactive: 3.74%; for `Cc1ccc(Cn2c(CO)cnc2SCC(=O)Nc2cccc(F)c2)cc1` it is inactive: 29%. The figure for `CC(=O)N1CCc2c(sc(NC(=O)CSc3ccc(F)cc3)c2-c2nc3ccccc3s2)C1` is inactive: -39.4%. The figure for `O=C(Cn1cc(S(=O)(=O)Cc2ccccc2Cl)c2ccccc21)Nc1ccc(F)cc1F` is inactive: 13.2%. Turning to `COc1ccccc1N1CCN(C(=O)COc2ccccc2C#N)CC1`, the activation was inactive: -8%.
